109 sequences from the supplement of paper PMC3334620 can be followed below.

Whole data set: some 33,000 sequences, median “E-score (-0.5 to 0.5)” near -0.054, cut for the highest 2% near 0.39. Some of the results follow.

This assay has as its target Ylr278c (UniProt Q05854). Briefly: PBM E-score (8-mer binding enrichment) (E-score (-0.5 to 0.5)); higher = stronger / more preferred TF binding; most listed sequences are background and not binding sites. To be noted: protein concentration: 200 nM; construct: GST-DNA-binding domain. An outline of the steps:
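E-scores (a modified Wilcoxon-Mann-Whitney statistic) were assigned by the Universal PBM Analysis Suite to every ungapped eight-base word pooled with its reverse complement. The input came from universal all-10-mer Agilent arrays made double-stranded by primer extension and probed with GST-tagged yeast transcription factors at about 100-200 nM. Fluorescent anti-GST detected bound protein, and masliner normalised the scans.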
In the case of GTTATAGA, the “PBM E-score” value is -0.267. For the sequence AAAAAATG, the “PBM E-score” value was found to be 0.0882. The same measure for CCAACGGC: 0.0697; for ATCTAACA: -0.275.

In the case of ATGGAGCG, the “PBM E-score” value is -0.0671. The same measure for TAGTTCAA: -0.019.

For the sequence CCTATACG, the “PBM E-score” value was -0.298. As to AGTGGTCG, the “PBM E-score” value worked out at 0.0431. The result for GGAGTCCC reads 0.256; that for AACTCACG, -0.205. The result for TAGTGAGA reads -0.00892; that for GGCAGGAA, -0.119; that for GTACGGTA, 0.0379. Take ACCAAGAC: the “PBM E-score” value was -0.0132. The same measure for ATCCGAAA: 0.368; for TAGCCTAA: -0.162; for GTAGGGAC: -0.123. The same measure for ACTGGTGC: -0.0757; for GAGGCGGC: 0.177.

CATATGAG: the “PBM E-score” value was -0.0107. The same measure for CGCTGAAA: 0.0975. For the sequence AGCTATAT, the “PBM E-score” value is -7e-05.

As to TCAATTCA, the “PBM E-score” value was -0.0799. The result for GCCTCCTA reads -0.0795; that for GGGCGAGA, -0.0207. The result for CCCTTCCC reads -0.00378; that for CTCTTCGA, -0.0617; that for CCGCGAGG, 0.338. The same measure for AGTCTCCC: 0.102; for AGCGGACG: 0.252; for GCTGGACA: -0.211. Turning to AAAAAACC, the “PBM E-score” value is 0.00451. As to TGGGACCA, the “PBM E-score” value is -0.194. Consider AGAGCCAA, for which the “PBM E-score” value was -0.238. With CTAAGACC, the “PBM E-score” value was 0.0428. As for CTCCATAA, the “PBM E-score” value is -0.269. With AAGTGCCG, the “PBM E-score” value stood at 0.205.

Consider CAGGAAGC, for which the “PBM E-score” value is -0.0754. The result for GCGTGCAA reads -0.121; that for AGTGCCAC, -0.239; that for AAAACCGG, 0.375. The result for AAGCTGGG reads -0.143. Regarding AGATGTCC, the “PBM E-score” value was found to be 0.16.

For GAGTAAAA, the “PBM E-score” value was determined as 0.0413. As for ACTAAATG, the “PBM E-score” value was -0.0707.

Consider GCCCACGA, for which the “PBM E-score” value is -0.146. The result for AATACCCG reads 0.212; that for CTGGCAAA, -0.0515; that for ATCTTCGA, -0.0649. With GTGCGATA, the “PBM E-score” value is -0.046. The same measure for ACTATGTA: -0.129.

ATGACTTG: the “PBM E-score” value was -0.0562.

As to ACTCCAAT, the “PBM E-score” value is -0.0126. The same measure for GCGTGAAA: -0.0229. With TCCTCCAA, the “PBM E-score” value is -0.245. Turning to CTGAACTC, the “PBM E-score” value was -0.141. GAGTGTGC: the “PBM E-score” value came to 0.0412. The result for ATGACTGC reads -0.0571; that for GAGAATGC, 0.0708. The result for CCCCAAGC reads 0.121; that for CGGCCGAG, 0.279. For ACAACGCC, the “PBM E-score” value is 0.107. The result for TCAATAGA reads -0.253. The same measure for CCTAGGGA: 0.0579; for GAGCGCCC: 0.00794; for CACAATTC: -0.00445. Consider TACATAAA, for which the “PBM E-score” value was -0.232. Consider AGCGAGTC, for which the “PBM E-score” value is -0.122. With AGTGCAAG, the “PBM E-score” value was -0.137. The result for ATGGCCTC reads 0.077; that for AACCGAGC, 0.171; that for AACGCCGC, 0.339. The same measure for CCCTATAG: -0.264; for GTAGTAAC: 0.0594; for CGTTTACC: 0.0804. The same measure for GATCCAAC: 0.0139; for CTGAGCAG: -0.238. On to CTTACAAC, for which the “PBM E-score” value is -0.168. The result for AACTTCCT reads 0.00298; that for CAGTAGAA, -0.217; that for CGGGTGAC, 0.0902. The result for GCGACGCC reads 0.21; that for AGAATATG, -0.0292. The result for GCCGTCAC reads 0.244.

CTATTCTA: the “PBM E-score” value was -0.133.

CACAAGGA: the “PBM E-score” value was -0.349. The same measure for ACTGGGGG: -0.168; for AATTGCGG: 0.225. On to GTTCGAGA, for which the “PBM E-score” value was -0.122. The result for ATAAAGCC reads 0.107; that for CTTCATCA, -0.0255; that for CGATAGGC, 0.0223.

Take GCGTGCGA: the “PBM E-score” value was -0.0371.

As for GGAGGAAA, the “PBM E-score” value came to 0.261. As to GTGCTGCA, the “PBM E-score” value is -0.00869.

For the sequence CCCGGAGA, the “PBM E-score” value is 0.476.

CGTGAAAA: the “PBM E-score” value is -0.0561. As for GCTGACGA, the “PBM E-score” value was -0.281. With ATCAGGGC, the “PBM E-score” value was -0.201. As to CAAGAATG, the “PBM E-score” value stood at 0.092. In the case of GATAACAC, the “PBM E-score” value is 0.0766. The same measure for AGGTATCC: -0.0286; for ACATACAC: -0.0879; for AGGGACTA: -0.223. ATGGTGAC: the “PBM E-score” value was -0.31. Consider CAGAACTC, for which the “PBM E-score” value was -0.0767. For the sequence AATGATGG, the “PBM E-score” value came out at 0.0306.

For the sequence AATTCCCG, the “PBM E-score” value worked out at 0.345.

For the sequence AAAACTGG, the “PBM E-score” value was -0.0461.
